The campaign covered roughly 420,000 compounds. About 50,000 (12%) were called active. This list was built around the results that the source calls inconclusive (neither active nor inactive); the mix of calls is not that of the screen. Calls come from the whole dose curve; as a rule, active = well fitted inhibition curve with a large enough effect; inconclusive = small, poorly fitted or top-dose-only effect; inactive = flat fitted curve, though single readings scatter. Potencies of inconclusive entries are left out as doubtful fits.
Assay: qHTS for Inhibitors of human tyrosyl-DNA phosphodiesterase 1 (TDP1): qHTS in cells in presence of CPT; note: nearly all actives have a fitted effect of over 55% in size
Conditions: chicken DT40 Tdp1-/-;hTDP1 cells + 20 nM CPT, ATP luminescence, 48 h; activity change, negative = growth inhibition: at 46.2 µM (top of the series)
Outline: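 Cell growth measured by CellTiter-Glo luminescence after a minimum 48 h, 37 C compound exposure with 20 nM CPT in Tdp1-knockout DT40 cells stably expressing hTDP1, seeded 400/well; qHTS titration format.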
% is set by controls: 0 for no effect and ±100 for the full control effect; potency is the fitted concentration of half-maximal effect; tags give direction and shape of the fitted curve.

Compound | activity change, negative = growth inhibition | Potency
CCCC1=Nc2cc(C(=O)N3CCC(C)CC3)ccc2Sc2ccc(C)cc21 | inactive: -3.99% | –
Cc1cccn2c(=O)c(/C=C(\C#N)C(=O)NCc3ccco3)c(N3CCCCCC3)nc12 | – | inconclusive [inhibitor, single point]
O=C(NC(=S)N1CCc2ccccc21)c1ccccc1Cl | – | inconclusive [inhibitor, single point]
Cc1ccc(OCC(=O)Nc2ccc3oc(=O)ccc3c2)c(C)c1 | – | inconclusive [inhibitor, single point]
Nc1nc(COc2ccccc2C=O)nc(Nc2ccccc2)n1 | inactive: 4.86% | –
C=CCN(C(=O)c1csnn1)C(C(=O)NC1CCCC1)c1ccc(F)cc1 (stereo not drawn) | inactive: 4.38% | –
CCN(CC)CCNC(=O)C1(O)c2cc(Br)ccc2NC(=O)N1c1c(F)cccc1F (stereo not drawn) | inactive: -6.34% | –
O=C(CSc1ccccc1C(=O)O)Nc1cccc(C(=O)O)c1 | inactive: -1.54% | –
Cc1ccc(O)c(C(CC(=O)NCc2ccco2)c2ccccc2)c1 (stereo not drawn) | – | inconclusive [inhibitor, partial curve, poor fit]
COc1ccc(/C(N)=N/OC(=O)Cc2ccccc2)cc1 | inactive: 13.2% | –
Cc1ccc2c(=O)c(C(=O)c3cccc(Cl)c3)cn(CC(=O)Nc3ccccc3C(F)(F)F)c2n1 | inactive: -2.41% | –
O=c1c2ccccc2c(C=NCCc2ccccc2)c(O)n1Cc1ccccc1 | – | inconclusive [inhibitor, single point]
CSc1nc(-c2ccc(Cl)cc2Cl)[nH]c(=O)c1C#N | inactive: -19.4% | –
O=c1c2ccccc2nc(COc2ccccc2)n1/N=C/c1ccco1 | – | inconclusive [inhibitor, single point]
O=C(COC(=O)[C@@H]1CC(O)CN1S(=O)(=O)c1ccccc1[N+](=O)[O-])c1ccccc1 (stereo partly drawn) | inactive: -6.58% | –
COc1cc(C(=O)Nc2ccc3c(c2)C(=O)c2ccccc2C3=O)cc(OC)c1OC | inactive: 1.57% | –
Nc1ccc2nc3c(=O)[nH]c(=S)[nH]c3nc2c1 | – | inconclusive [inhibitor, single point]
CCCOc1ccc(C2C(C(=O)OC)=CN(CCOC)C=C2C(=O)OC)cc1 | – | inconclusive [inhibitor, single point]
CC(C)CC1NC(=O)N(CC(=O)Nc2cccc(Br)c2)C1=O (stereo not drawn) | inactive: -6.06% | –
CSc1ccccc1C(=O)Nc1c(C)cccc1C | – | inconclusive [inhibitor, partial curve]
COc1cccc(Cn2c3ccc(NC(=O)CCc4ccc(F)cc4)cc3c(=O)n2C)c1 | – | active: 4.61 µM
COc1ccc(CN2C(=O)N(c3ccccc3)C(=O)C2c2ccccc2)cc1COc1ccc(NC(C)=O)cc1 (stereo not drawn) | – | active: 10 µM
O=C(CCl)Nc1ccc2c(c1)OCO2 | – | active: 13 µM
O=C(NC(=S)N1CCN(c2ccc([N+](=O)[O-])cc2)CC1)c1ccccc1 | – | inconclusive [inhibitor, partial curve, poor fit]

Compound | activity change, negative = growth inhibition | Potency
CCC(NS(=O)(=O)c1ccc2c(c1)Cc1cc(S(=O)(=O)NC(CC)C(=O)O)ccc1-2)C(=O)O (stereo not drawn) | inactive: 3.44% | –
Cc1ccc(Cn2c(=N)c(C(=O)NC3CCCC3)cc3c(=O)n4ccccc4nc32)cc1 | – | active: 10.3 µM
Cc1ccc(C)c(NS(=O)(=O)c2cc(C(=O)NCCSC3CCCCC3)ccc2C)c1 | – | inconclusive [inhibitor, single point]
CC(=O)Nc1cc(-c2ccc(C(=O)N3CCOCC3)cc2)cn2c(-c3ccccc3)cnc12 | – | inconclusive [inhibitor, single point]
CC(C)(C)C1CCC2(CC1)C(C#N)=C(SCC(=O)Nc1ccccc1)NC(=O)C2C#N (stereo not drawn) | – | active: 16.4 µM
Cc1ccc(-c2ccc(/C=C/C(=O)c3ccccc3)o2)cc1 | – | inconclusive [inhibitor, single point]
O=C1NC(=Nc2ccccc2)S/C1=C/c1cccs1 | inactive: -16.9% | –
CN(C)CCN(C(=O)c1ccc2c(c1)OCCO2)c1nc2ccc(Cl)cc2s1 | – | inconclusive [inhibitor, single point]
CCCCn1c(N)c(N(CC(C)C)C(=O)c2ccco2)c(=O)[nH]c1=O | inactive: -24.3% | –
Cc1nc(-c2ccc(NC(=O)c3ccccc3)cc2)cs1 | – | active: 18.4 µM
CC(C)OC(=O)/C=C1\C[C@@H](c2ccccc2C(F)(F)F)O[C@@H](c2ccccc2C(F)(F)F)O1 | – | inconclusive [inhibitor, single point]
C#CC1(NC(=O)NS(=O)(=O)c2ccc(C)cc2)CCCCC1 | inactive: -7.46% | –
Cn1c(=O)c2[nH]c(SCc3cccnc3)nc2n(C)c1=S | inactive: -9.73% | –
Cc1nnc2n(Cc3ccccc3)c(=O)c3c4c(sc3n12)COC(C(C)C)C4 (stereo not drawn) | – | inconclusive [inhibitor, single point]
C=CCc1cccc(CNc2nc3ccccc3n2CCN2CCOCC2)c1O | – | inconclusive [inhibitor, single point]
Cc1cc(C)nc(N2CCCC(CCC(=O)NCc3ccc(F)c(F)c3)C2)n1 (stereo not drawn) | inactive: 12.2% | –
COc1ccc(CCn2c(-n3nc(C)cc3C)nc3c2c(=O)[nH]c(=O)n3C)cc1 | – | active: 1.84 µM
COc1ccc(-c2noc(-c3ccc(NCC4CCCO4)c([N+](=O)[O-])c3)n2)cc1OC (stereo not drawn) | – | inconclusive [inhibitor, partial curve]
COc1ccccc1CNC(=O)c1oc2ccc3c(c2c1C)C(=O)CC(C)(C)O3 | – | inconclusive [inhibitor, single point]
CC(Sc1nnc(C2CC2)n1C1CC1)C(=O)NC1(C#N)CCCCC1 (stereo not drawn) | – | inconclusive [inhibitor, partial curve, poor fit]
CC1CC(C)CN(CCCNC(=O)C2CCN(S(=O)(=O)N3CCCCC3)CC2)C1 (stereo not drawn) | inactive: -7.08% | –
CC(=O)Nc1ccc(NC(=O)CCS(=O)(=O)c2ccc3c(c2)CC(=O)N3C)cc1 | inactive: -1.75% | –
Cc1ccc(NC(=O)CSc2ncc3ccccn23)cc1C | – | inconclusive [inhibitor, single point]
COC(=O)Nc1ccc(S(=O)(=O)N2CCC(C(=O)N(C)C3CCCCC3)CC2)cc1 | – | inconclusive [inhibitor, single point]
